# Results are given in words; binding and its absence hold for the method and conditions named. Binding seen in cells or lysates may run through a third protein. Some entries that bind do so weakly or less than the wild type. For some assays here: Tags and fused reporters may be left off the sequences shown.
# Protein sequences, listed by entry. Tags and fused reporters are not part of them.
# UniProt Q9BZ29: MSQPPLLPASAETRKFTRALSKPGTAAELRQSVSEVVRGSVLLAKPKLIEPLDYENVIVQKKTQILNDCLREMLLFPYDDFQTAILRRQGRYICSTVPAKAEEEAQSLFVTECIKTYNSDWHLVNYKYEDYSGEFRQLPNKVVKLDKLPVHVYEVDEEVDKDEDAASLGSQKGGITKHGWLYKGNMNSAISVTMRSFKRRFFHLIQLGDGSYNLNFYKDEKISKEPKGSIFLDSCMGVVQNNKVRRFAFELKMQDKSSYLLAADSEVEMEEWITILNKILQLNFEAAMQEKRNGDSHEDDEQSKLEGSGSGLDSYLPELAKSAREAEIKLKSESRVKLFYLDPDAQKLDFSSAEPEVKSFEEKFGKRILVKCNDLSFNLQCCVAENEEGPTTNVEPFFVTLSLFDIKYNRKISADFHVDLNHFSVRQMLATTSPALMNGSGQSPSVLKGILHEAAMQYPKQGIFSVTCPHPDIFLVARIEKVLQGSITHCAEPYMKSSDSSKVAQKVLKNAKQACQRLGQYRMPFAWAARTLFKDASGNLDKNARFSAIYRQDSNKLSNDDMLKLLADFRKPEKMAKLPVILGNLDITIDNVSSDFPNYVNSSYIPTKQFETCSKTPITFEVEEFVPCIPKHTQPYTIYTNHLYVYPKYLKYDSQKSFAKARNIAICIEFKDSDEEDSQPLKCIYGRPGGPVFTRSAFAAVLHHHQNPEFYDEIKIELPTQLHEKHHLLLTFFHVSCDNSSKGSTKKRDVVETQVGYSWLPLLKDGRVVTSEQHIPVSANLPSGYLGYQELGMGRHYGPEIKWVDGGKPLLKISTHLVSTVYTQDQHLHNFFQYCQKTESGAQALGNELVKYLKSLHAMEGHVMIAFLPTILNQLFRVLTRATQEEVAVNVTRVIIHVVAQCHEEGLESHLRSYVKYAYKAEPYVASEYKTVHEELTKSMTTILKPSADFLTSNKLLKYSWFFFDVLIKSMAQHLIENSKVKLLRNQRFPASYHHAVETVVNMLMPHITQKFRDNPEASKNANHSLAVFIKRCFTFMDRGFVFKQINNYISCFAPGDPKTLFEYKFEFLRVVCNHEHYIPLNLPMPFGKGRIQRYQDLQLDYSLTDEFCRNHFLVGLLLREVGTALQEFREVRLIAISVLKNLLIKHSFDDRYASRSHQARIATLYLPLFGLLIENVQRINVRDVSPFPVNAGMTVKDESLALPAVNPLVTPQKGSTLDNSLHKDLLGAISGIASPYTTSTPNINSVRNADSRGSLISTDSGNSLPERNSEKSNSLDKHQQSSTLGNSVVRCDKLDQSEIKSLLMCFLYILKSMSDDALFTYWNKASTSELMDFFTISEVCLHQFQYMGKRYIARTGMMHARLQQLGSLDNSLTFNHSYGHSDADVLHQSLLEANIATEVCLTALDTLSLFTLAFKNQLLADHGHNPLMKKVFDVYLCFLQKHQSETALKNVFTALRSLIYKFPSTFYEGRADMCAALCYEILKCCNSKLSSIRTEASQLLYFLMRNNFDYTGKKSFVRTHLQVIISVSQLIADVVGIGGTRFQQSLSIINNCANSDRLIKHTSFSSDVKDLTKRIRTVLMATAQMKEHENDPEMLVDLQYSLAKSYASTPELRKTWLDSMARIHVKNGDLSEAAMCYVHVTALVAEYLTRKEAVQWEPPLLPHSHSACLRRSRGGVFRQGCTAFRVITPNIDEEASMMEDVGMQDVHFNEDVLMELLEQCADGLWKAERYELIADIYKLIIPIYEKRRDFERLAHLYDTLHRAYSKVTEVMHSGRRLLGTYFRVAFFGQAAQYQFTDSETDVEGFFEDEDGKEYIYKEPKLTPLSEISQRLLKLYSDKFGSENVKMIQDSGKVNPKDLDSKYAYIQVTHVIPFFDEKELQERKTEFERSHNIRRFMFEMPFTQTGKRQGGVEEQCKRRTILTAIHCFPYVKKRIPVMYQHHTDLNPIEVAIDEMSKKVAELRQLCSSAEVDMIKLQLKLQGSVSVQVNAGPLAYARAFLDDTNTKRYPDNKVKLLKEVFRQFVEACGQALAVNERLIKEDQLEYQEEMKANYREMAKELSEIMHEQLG
# UniProt P60953: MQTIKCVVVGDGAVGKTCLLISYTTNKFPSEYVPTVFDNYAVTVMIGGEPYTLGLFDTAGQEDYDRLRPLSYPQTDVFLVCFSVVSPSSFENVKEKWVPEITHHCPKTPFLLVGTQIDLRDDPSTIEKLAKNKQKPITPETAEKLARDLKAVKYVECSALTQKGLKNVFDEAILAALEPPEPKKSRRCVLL
# UniProt P61586: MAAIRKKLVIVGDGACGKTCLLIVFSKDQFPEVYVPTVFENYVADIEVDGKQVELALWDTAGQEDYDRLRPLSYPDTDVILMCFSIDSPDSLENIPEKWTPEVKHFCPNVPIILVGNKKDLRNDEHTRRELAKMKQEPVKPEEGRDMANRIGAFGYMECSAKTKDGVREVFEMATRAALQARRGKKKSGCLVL
# UniProt Q92556: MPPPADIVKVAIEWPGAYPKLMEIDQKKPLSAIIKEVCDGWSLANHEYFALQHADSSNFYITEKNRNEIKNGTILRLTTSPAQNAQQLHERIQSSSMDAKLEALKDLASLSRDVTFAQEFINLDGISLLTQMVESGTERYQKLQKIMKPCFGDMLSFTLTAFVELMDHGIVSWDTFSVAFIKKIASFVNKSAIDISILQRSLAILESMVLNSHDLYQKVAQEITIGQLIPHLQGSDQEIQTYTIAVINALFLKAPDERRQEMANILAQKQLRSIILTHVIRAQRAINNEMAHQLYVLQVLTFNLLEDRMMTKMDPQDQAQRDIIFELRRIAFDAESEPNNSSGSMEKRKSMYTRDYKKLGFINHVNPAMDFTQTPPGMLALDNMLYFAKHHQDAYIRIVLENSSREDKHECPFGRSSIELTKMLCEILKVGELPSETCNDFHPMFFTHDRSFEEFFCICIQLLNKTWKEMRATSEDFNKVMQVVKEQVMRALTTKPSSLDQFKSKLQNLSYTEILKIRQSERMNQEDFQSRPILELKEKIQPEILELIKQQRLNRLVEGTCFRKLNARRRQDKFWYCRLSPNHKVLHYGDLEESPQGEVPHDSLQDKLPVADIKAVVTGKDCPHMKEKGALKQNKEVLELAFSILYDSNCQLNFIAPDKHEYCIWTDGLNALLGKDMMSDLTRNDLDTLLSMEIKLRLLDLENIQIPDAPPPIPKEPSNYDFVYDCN
# How the values were obtained:
# [1] = biological target: DOCK9, endogenous in HUVEC (human (endogenous in HUVEC)) (UniProt Q9BZ29); experiment: co-IP; endogenous proteins in HUVEC, serum starved 5 h and stimulated with VEGF (25 ng/ml), NP40 lysis buffer (20 mM Tris-HCl pH 7.5, 150 mM NaCl, 1% NP40), IP with anti-DOCK9 antibody, immunoblot of DOCK4
# [2] = biological target: DOCK9, endogenous in HUVEC (human (endogenous in HUVEC)) (UniProt Q9BZ29); experiment: co-IP; as the HUVEC co-IP with VEGF (25 ng/ml), but after Rac1 knockdown (Rac1 siRNA ol1)
# Cdc42 GST fusion protein = Cdc42 GST fusion protein (UniProt P60953); experiment: pull-down; nucleotide-free pull-down: Rac1, RhoA and Cdc42 GST fusion proteins on beads with cell lysate in the presence of 15 mM EDTA to chelate magnesium and stabilize the nucleotide-free GTPase; immunoblot of DOCK4; only the target purified
# RhoA GST fusion protein = RhoA GST fusion protein (UniProt P61586); experiment: as above
# GST–ELMO1 = GST–ELMO1 (UniProt Q92556); experiment: pull-down; GST–SH3(DOCK4) or GST–ELMO1 on glutathione beads incubated with cell lysate (Rho lysis buffer) at 4 °C for 45 min, washed with TBS with 10 mM MgCl2; immunoblot of DOCK9 or DOCK4; for GST–ELMO also after siRNA knockdown of DOCK4 or DOCK9; only the target purified
# GST–SH3(DOCK4) (human) = biological target: T1, GST–SH3(DOCK4) (human) (UniProt Q8N1I0); experiment: as above
# T1 sequence: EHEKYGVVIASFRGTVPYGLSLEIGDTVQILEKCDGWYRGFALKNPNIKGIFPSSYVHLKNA
# [3] = biological target: DOCK9 in HEK293T lysate, precipitated with anti-DOCK9 antibody (human (endogenous in HEK293T)) (UniProt Q9BZ29); experiment: co-IP; HEK293T transfected with DOCK4 constructs, Rho lysis buffer (50 mM Tris-HCl pH 7.4, 100 mM NaCl, 10% glycerol, 1% NP40, 5 mM MgCl2), IP with anti-DOCK9 antibody and Protein G Sepharose at 4 °C, immunoblot of DOCK4
substance,measurement,setting,value
"DOCK4 (dedicator of cytokinesis 4), endogenous in HUVEC (from UniProt Q8N1I0 1-1966)",binding,[1],binds
same,binding,[2],no binding (condition: with knockdown of Rac1 (siRNA))
DOCK4 in the cell lysate used for GST pull-downs (from UniProt Q8N1I0 1-1966),binding,Cdc42 GST fusion protein,no binding
same,binding,RhoA GST fusion protein,no binding
same,binding,GST–ELMO1,binds
DOCK9 in the cell lysate used for GST pull-downs (from UniProt Q9BZ29 1-2069),binding,GST–SH3(DOCK4) (human),binds
Flag-tagged DOCK4 wildtype (from UniProt Q8N1I0 1-1966),binding,[3],binds
GFP-tagged DOCK4 (from UniProt Q8N1I0 1-1966),binding,[3],binds

# Source: paper PMC4507007
